From the supplement of paper PMC12632987
The full ranking holds about 2,300 sequences; the median of “median log2 fold change of GCK-ALFA target abundance (FLAG IP / Myc IP barcode read proportion)” is about 0.095, and the lowest 2% start at about -0.47. The list shows a part of the results.

B1: LC3A_147_409 (protein)
chain: WLVEVDVDILTRDAEEEVIEAFRELAERLREKGYEVELEIEVEKLPNGETYIEVRIRIRAETEEEAKAAAQEVLDHIDELEERLKDKILGSLISVEIEKE
B2: LC3A_28_1288 (protein)
chain: SEIEKNIAEALKEAEKAKKEGKPVVITIKVPSGASEEEIAKVIEGLEKIAEILKDVKDQAIIIDVDSGVAEEHINKLADKAEEIEKKYPNVTVIIALDED
B3: LC3A_13_340 (protein)
chain: TIKLEVTTAEELREKSTAALDANPGEKIEITVTVENEEEAIAIAKELEKIVRKAAEKGSSLNITIKGKRDLVNFVAVEVGAEAYEVLDKTNVTINTEVVP
B4: LC3A_free_46_2416 (protein)
chain: YKVEVEVWTRAAPKEEIDALVERLTKKAREIAEKYGAKVEIKVEYFKEEDGTWSALITITVTVDDEEKAEAIAQELLDEIDKLDEETGLIGLISVEVIKE
B5: LC3A_3_1351 (protein)
chain: MEELIEEAVERLREAGLSEEVIEAAREALEALAEQGHEEAILALTETLLKHKDAPEEDLIEALKNLTEELKANPNLTEEEVLELVKLFDNELAIEPLDEE
B6: LC3A_17_549 (protein)
chain: MEEIKKELEKLLKELEALVKELEKYDPEAAKKLKKKLKEAKKLLEEGKLKEAAETLAEAARELANKLDELEPKHGNEASVLAMEASGLELEAIGLLLKLE
B7: LC3A_free_12_2127 (protein)
chain: SVEEMIEGGAELLVERVELSREAAPEAIRDLIELGDKEAAIEALVAAAEKQGLPDEELLELAKELIDENKMSPEEVERLIEKFRAAGREELAERIAEYAA
B8: LC3A_3_1419 (protein)
chain: LEEEKEELLELLKEAGHSEETLEAVSRLIDLLESRGAEEEALEAIELFRENKDLPSEELLAVAEEVIEALEAGEVTPEEAVELLKELLATARAAAEIIEL
B9: LC3A_45_1963 (protein)
chain: KYEATIDLLVPREDVETVLAAVRATAAALKAEHGDRVQFDLATLEASAAASADEEEVYLRLRITADTKELALDAADRVLEAIEAAVGKPVAAIISVEEVP
B10: LC3A_28_987 (protein)
chain: SETEEAAKEFLERAKKAAKEGKPEVLTLKVSSTTTPEDAKLVAETIKEAGEILKDIKGSAIIIDVESGVKQEHIDLIAKTAEEVEEKTKNVSVIIALDED
B11: LC3A_132_249 (protein)
chain: SEEKLEEALEEIEELLDKVVEALEKGEDYWPLIKELDEAAEEYAEELSLEETEELVERSEEYARELFEKRLDPNDEEARRALDIIEMLLDGVLIEKELKS
B12: LC3A_17_552 (protein)
chain: REELRERLRRLLEELRALVERLEPYDPEAARRLRERLERAEELLEAGRLREAAETLAEAAREAARRAEELEPKYGNEMSVLAMEFNGLELEAIGLLLELD
B13: LC3A_147_396 (protein)
chain: VKLEIDIDLITKDAEEEIIEDIKKLVEELKAKGYEVELEIEVEKLDENTTYISIKITVKAKTKEEAEEARDTIIDHFDEIEEKYKDKILGSLISYEIIEE
B14: LC3A_3_1377 (protein)
chain: GEELLEEAKKILEEQGRSEETKKAALETLKALLEKGYFNAAETLIELLKESEDLSDENLLAFFEDILRAVTEEDISEEELIKLIKEEFEIAKNDEEIEEL
B15: LC3A_3_1524 (protein)
chain: MEEIKKEILELLKEQGADEETLKKAEEALEILEKRGYEKAMKTLLEELKKLKDAPPETIAWFVEEVLRLLLEKDLSEEEVTEEIKRIARTALSASEIEEL
B16: LC3A_17_591 (protein)
chain: SEEIREELERLLKELEALIKEAKKYGIKEAKEVEKLLKEAKKALKEGKLREAAKLLEEAARLLADAFEKKEDELGSEASVLAMEANGLELEAIGILLKLE
B17: LC3A_147_482 (protein)
chain: MEVDIDVLVRDQEAADAFEAFIREKAAELEARGVEVEVEIKREQLSPDEVYIEVRIRIRAETEEEEEAAAQEFVDAIDAFIEENKDRVLAALISIERVEP
B18: LC3A_17_588 (protein)
chain: SEEIKKELEKLAKELKKLIKKAEKYGLEEAKEAEKLLKEAEKYIKEGKLKEAAETLAKAAELLSEAFEKKEEELGEEAELLELEADSIEIEALSILLKLE
B19: LC3A_free_46_2383 (protein)
chain: YKAEIDIDFGAMDKETAEKIAEEIKKAAEEISKKYGVKVEVEVEIIEDEDGNYYLRVKITIEGEDKEKVEEAVNELIEKIDEIAEKANVSYIISVEFIDE

biological target: MAP1LC3A, Q9H492; assay: median log2 fold change of GCK-ALFA target abundance (FLAG IP / Myc IP barcode read proportion) (log2 ratio); each designed protein is fused to an ALFA-tag nanobody in HEK293 cells to bring the named protein to FLAG-tagged glucokinase (GCK); Myc marks an untargeted standard; higher = target protein stabilised (more abundant); conditions: target protein: 3xFLAG-MCP-GCK-ALFA reporter; HEK293 landing pad (RPLP)
In short: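 Sequencing of reverse-transcribed, amplified circular RNA barcodes from anti-FLAG and anti-Myc immunoprecipitates provided the readout for an ALFA-nanobody-fused binder library recombined into HEK293 landing-pad cells. Those cells were induced with 2 μg mL^−1 doxycycline, transfected with a plasmid expressing a FLAG-tagged target and a Myc-tagged standard, and lysed after 48 h. Target abundance is the per-binder median log2 ratio of FLAG to Myc barcode read proportions. Only barcodes at a proportion of ≥10^−7 in both replicates and binders with ≥3 barcodes per replicate were kept, with a 10^−6 pseudocount added before the two replicates were pooled.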

Compared with B1, B2 is higher in “median log2 fold change” value: -0.108 for the first, 0.258 for the second.

B3 and B4 are within 0.2 log units of each other in “median log2 fold change” value: 0.29 for the first, 0.114 for the second.

B5 and B6 are within 0.2 log units of each other in “median log2 fold change” value: 0.152 for the first, 0.207 for the second.

Going from B7 to B8, the “median log2 fold change” value falls from 0.321 to 0.0228.

B9 and B10 are within 0.2 log units of each other in “median log2 fold change” value: 0.184 for the first, 0.0943 for the second.

Going from B11 to B12, the “median log2 fold change” value rises from -0.409 to 0.248.

Compared with B13, B14 is higher in “median log2 fold change” value: -0.161 for the first, 0.612 for the second.

Going from B15 to B16, the “median log2 fold change” value falls from 0.153 to -0.0708.

B17 and B18 are within 0.2 log units of each other in “median log2 fold change” value: -0.0679 for the first, 0.0563 for the second.

In the case of B19, the “median log2 fold change” value is reported as 0.115.
